Measurements: the RNAGym collection of RNA variant scans (doi:10.1093/nar/gkz1192)
Read counts are not given, so values of variants with three or more changes are uncertain.

B1: CPEB3 Ribozyme (parent)
chain: UAACAGGGGGCCACAGCAGAAGCGUUCACGUCGCAGCCCCUGUCAGAUUCUGGUGAAUCUGCGAAUUCUGCUGUAUAUCUC

Variants of: B1
Assay: self-cleavage, relative activity (ratio to wild type); higher = more cleavage; in vitro, sequencing
Procedure, shortened: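 For each CPEB3 ribozyme variant, relative activity is its cleaved/total read fraction divided by the unmutated ribozyme's. Barcoded error-prone PCR libraries were transcribed by T7 RNA polymerase (5 hours, 37°C) and held in DNase I for 15 min before an EDTA stop, with cleavage occurring throughout. Template-switching reverse transcription and Illumina sequencing were used to read the RNAs. A 5-read minimum applied, and results are the mean of three batches.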

| Variant | self-cleavage |
| --- | --- |
| UAACAGGGGGCCUCAGCGGAAGCAUUCACGUCGCAGCCCCUGUCAGAUUCUGGUGAGUCUGCGAAUUCUGCUGUAUAUCUC [A13U A18G G24A A57G] | 0.05 |
| UAACAGGGGGCCUCAGCGGAAGCGUUCACGUCGCAGCCCCUGUCAGAUUCUGGUGAAUCUGCGAAUUCUGCUAUAUAUCUC [A13U A18G G73A] | 1.05 |
| UAACAGGGGGCCUCAGCGGAAGCGCUCACGUCGCAGCCCCUGUCAGAUUCCGGUGUAUCUGCGAAUUCUGCUGUAUAUCUC [A13U A18G U25C U51C A56U] | 0.07 |
| UAACAGGGGGCCUCAGCGGAAGCGUCCGCGUCGCAGCCCCUGUCAGAUUCUGGUGAAUCUGCGAAUUCUGCUGUAUAUCUC [A13U A18G U26C A28G] | 0.03 |
| UAACAGGGGGCCUCAGCGGAAGCGUUCACGUCGCAGCCCCAGUCAGAUUCUGGUGAAUCUGCGAAUUCUGCUGUAUAUCUC [A13U A18G U41A] | 0.08 |
| UAACAGGGGGCCUCAGCGGAAGCGUUCACGUCGCAGCCCCUGCCAGAUUCUGGUGAACCUGCGAAUUCUGCUGUAUAUCUC [A13U A18G U43C U58C] | 0.17 |
| UAACAGGGGGCCUCAGCGGAAGCGUUCACGUCGCAGCCCCUGCCAGAUUCUGGUGAAUCUGCGAAUUCCGCUGUACAUCUC [A13U A18G U43C U69C U76C] | 1.14 |
| UAACAGGGGGCCUCAGCGGAAGCGUUCACGUCGCAGCCCCUGUCAGAGUCUGGUGAAUCUGCGAAUUCUGCUGUAUAUCUC [A13U A18G U48G] | 0.24 |
| UAACAGGGGGCCUCAGCUGAAGCGUUCACGUCGCUGCCCCUGUCAGAUUCUGGUGAAUCUGGGAAUACUGCUGUAUAUCUC [A13U A18U A35U C62G U67A] | 0.06 |
| UAACAGGGGGCCUCAGCUGAAGCGUUCACGUCGCAGCCCCUGUCAGAUUCUGGUGAGUCUGCGAAUUCUGCUGUAUAUCUC [A13U A18U A57G] | 0.11 |
| UAACAGGGGGCCUCAGCUGAAGCGUUCACAUCGCAGCCCCUGUCAGAUUCUGGUGAAUCUGCGAAUUCUGCUGUAAAUCUC [A13U A18U G30A U76A] | 0.24 |
| UAACAGGGGGCCUCAGCUGAAGCGAUCACGUCGCGGACCCUGUCAGAUUCUGGUGGAUCUACGAAUUCUGCUGUAUAUCUC [A13U A18U U25A A35G C37A A56G G61A] | 0.21 |
| UAACAGGGGGCCUCAGCUGAAGCGCUCACGUCGCAGCCCCUGCCAGAUUCUGGUGAAUAUGCGAAUCCUGCUGUAUAUCUC [A13U A18U U25C U43C C59A U67C] | 0.1 |
| UAACAGGGGGCCUCAGCUGAAGCGUUCACGUCGCAGCCCCUGCCAGAUUCUGGUGAAUCUGCGGACUCUGCUGUAUAUCCC [A13U A18U U43C A64G U66C U80C] | 0.06 |
| UAACAGGGGGCCUCAGCUGAAGCGUUCACGUCGCAGCCCCUGUCAGAUUCCGGUGAAUCUGCGAAUUCUUCCGUAUAUCUC [A13U A18U U51C G70U U72C] | 0.24 |
| UAACAGGGGGCCUCAGCUGAAGCGUUCACGUCGCAGCCCCUGUCAGAUUCUGGCGAAUCUGCGAAUUCUGCUGUAUAUCUC [A13U A18U U54C] | 0.39 |
| UAACAGGGGGCCUCAGCAGCAGCGUACACUUCGCAGCCCCUGUCAGAUUCUGGUGAAUCUGCAAAUUCUGCUGUAUAUCUC [A13U A20C U26A G30U G63A] | 0.04 |

| Variant | self-cleavage |
| --- | --- |
| UAACAGGGGGCCUCAGCAGGAGCGUUCACGUCGCAGCCCCUGUCUGAUUCUGGUGAAUCUGCGAAUUCUGCUGUAUUUCUC [A13U A20G A45U A77U] | 0.3 |
| UAACAGGGGGCCUCAGCAGGAGCGUUCACGUCGCAGCCCCUGUCAGAUUCUGGUGAAUCUGCGGAUUCUGCUGUAUACCUC [A13U A20G A64G U78C] | 0.55 |
| UAACAGGGGGCCUCAGCAGGAGCGUUCACGUCGCAGCACCUGUCAGAUUCCGGUGAAUCUGCGAAUUCUGCCGUAUAUCUC [A13U A20G C38A U51C U72C] | 0.15 |
| UAACAGGGGGCCUCAGCAGGAGCGUUCACGUCGCAGCCACUGUCAGAUUCUUGUGAAUCCGCGAAAUCUGCUGUAUAUCUC [A13U A20G C39A G52U U60C U66A] | 0.1 |
| UAACAGGGGGCCUCAGCAGGAACGUUCACGUCGCAGCCCCUGUCAUAUUCUGGUGAAUCUGCGAAUUCUGCCGUAAAUCUC [A13U A20G G22A G46U U72C U76A] | 0.05 |
| UAACAGGGGGCCUCAGCAGGAGCGUUCACGUCCCAGCCCCUGUCAGAUUCUGGUGAAUCUGCGAAUUCCGCUGUAUAACUC [A13U A20G G33C U69C U78A] | 0.05 |
| UAACAGGGGGCCUCAGCAGGAGCGUUCACGUCGCAUCCCCUGUCAGAUUCUGGUGAAUCUGCGGAUUCUGCUGUAUAUCUC [A13U A20G G36U A64G] | 0.16 |
| UAACAGGGGGCCUCAGCAGGAGCGCUCACGACGCAGCCCCUGUCAGAUUCUGGUGAAUCUGCGAAUUCUGCUGUACAUCAC [A13U A20G U25C U31A U76C U80A] | 0.09 |
| UAACAGGGGGCCUCAGCAGGAGCGUUCACGUCGCAGCCCCUGUCAGAUUCUGGUGAAUCUGCGAAUACUGCUGUAUAUCCC [A13U A20G U67A U80C] | 0.99 |
| UAACAGGGGGCCUCAGCAGUGGCGUUCACGUCGCGGCCCCUGUCAGAUUCUGGUGAAUCUGCGAAUUCAGCUGUAUAUCUC [A13U A20U A21G A35G U69A] | 0.11 |
| UAACAGGGGGCCUCAGCAGUAGCGUUCACGUCGCGGCCCCUGUCUGAUUCUGGAGAAUCUGCGAAUUCUGCUGUAUAUCUC [A13U A20U A35G A45U U54A] | 0.25 |
| UAACAGGGGGCCUCAGCAGUAGCGUUCACCUCGCAGCCCCUGUCAGAUUCUGGAGAAUCUGCGAAUUCUGCCGUAUGUCUC [A13U A20U G30C U54A U72C A77G] | 0.04 |
| UAACAGGGGGCCUCAGCAGUAGCGUUCACGUCGCAGCCCCCGUCAGAUUCUGGUGAAUCUGCGAAUUCUGCCGUAUAUCUC [A13U A20U U41C U72C] | 0.23 |
| UAACAGGGGGCCUCAGCAGAGGCGUUCACGUCGCAGCCCCUGUCGGAUUCUGGUGAAUCUGCGAAUUCUGCUGUAUAUCUC [A13U A21G A45G] | 0.27 |
| UAACAGGGGGCCUCAGCAGAGGCGUUCACGUCGCAGCCCCUGUCGGGUUCUGGUGAAUCUGCGAAUUCUGCUGUAUAUCUC [A13U A21G A45G A47G] | 0.12 |
| UAACAGGGGGCCUCAGCAGAGGCGUUCACGUCGCAGCCCCUGUCAGCUUCUGGCGAAUCUGCGAAUUCUGCUGUAUAUCUA [A13U A21G A47C U54C C81A] | 0.07 |
| UAACAGGGGGCCUCAGCAGAGGCGUUCACGUCGCAGUCCCUGUCAGAUUCUGGUGAAUCUGCGAAUUCUGCUGUAUAUCUC [A13U A21G C37U] | 0.1 |
